Measured values taken from article PMC11117730 (2024).

Tests used:
anti-IL-17A-sST2 = anti-IL-17A-sST2 (mouse, UniProt P14719 27-332); test: SPR
anti-IL-17A = test: SPR
anti-IL-17A, sequence (Q16552 24-155): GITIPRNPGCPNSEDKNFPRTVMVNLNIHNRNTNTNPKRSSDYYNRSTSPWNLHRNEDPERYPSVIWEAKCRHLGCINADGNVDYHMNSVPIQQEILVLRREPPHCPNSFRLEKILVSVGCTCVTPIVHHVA

B1: human IL-17A (protein)
chain: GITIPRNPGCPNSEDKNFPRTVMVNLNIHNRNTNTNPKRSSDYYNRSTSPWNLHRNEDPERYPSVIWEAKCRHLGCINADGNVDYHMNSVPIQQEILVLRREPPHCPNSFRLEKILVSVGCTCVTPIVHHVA
Kd (anti-IL-17A-sST2): 0.0213 nM
koff (anti-IL-17A-sST2): 1.77e-05 s⁻¹
Kd (anti-IL-17A): 0.027 nM
koff (anti-IL-17A): 2.32e-05 s⁻¹
